Test results published in ChEMBL document CHEMBL4888484, “Replenishing the malaria drug discovery pipeline: Screening and hit evaluation of the MMV Hit Generation Library 1 (HGL1) against asexual blood stage Plasmodium falciparum ,using a nano luciferase reporter read-out” (2022).
Several values for one entry are separate records, joined by “and”; a condition that tells them apart may be missing. Equal entries are not always repeated. The whole screen tested about 150,000 compounds, of which about 540 (0.36%) showed an effect of 50% or more. The list shows a part of the results.

Test system: Plasmodium falciparum
Assay: Primary screen in NF54 nanoGlo assay, in single point, at 2uM, 72h; a lower Z score goes with more inhibition
Assay type: functional, Erythrocyte
Conditions: timepoint 72 hour

SMILES	% Inhibition [%]	Z score	% Inhibition (2 µM)	Z score (2 µM)
CCC[C@]1(CO)CCN(Cc2csc(CCC(C)C)n2)C1	-21	2.31		
CCC(NC(=O)NC1CCc2c(nnn2C)C1)C(F)F (stereo not given)	-3	0.38		
Cc1cc(C)n(-c2ccnc(N3CCc4ccccc4C3)n2)n1	-18	1.92		
CO[C@H]1CCCOC12CCN(C(=O)c1cc(C)nc3onc(C)c13)CC2	-11	1.49		
OC[C@H](CC1CCC1)Nc1cnccn1	1	-0.13		
Cc1ncsc1C(=O)N(C)Cc1cnn(C)c1	9	-1.51		
Cc1ccn2c(Nc3ccc4c(c3)OCCO4)c(-c3ccc(N4CCOCC4)cc3)nc2c1	-3	0.53		
c1ccc([C@@H]2CN(c3nnc(-c4ccccn4)s3)CCO2)cc1	-2	0.19		
O=C(NCC1CCCCC1)[C@@]1(CCO)CC12CCOCC2	3	-0.57		
Cc1cc(O)cc(=O)n1CCCC(=O)N[C@H](c1nc2ccccc2n1C(C)C)C(C)C	-12	1.56		
COc1cccc(Cn2c(C(=O)NC3CCCCC3)cc3ccsc32)c1	-4	0.47		
OC(c1ccccn1)C(O)c1ccccn1 (stereo not given)	-2	0.27		
COc1ccc(CCC(=O)N2CC3(C[C@H](N4CCCCC4)CO3)C2)cc1	-6	0.93		
O=C(COC(=O)c1ccc2ccccc2c1)Nc1ccccc1C(F)(F)F	-4	0.57		
Cc1cccc(-c2noc(-c3ccc(N4CCc5ccccc5C4)nc3)n2)c1	2	-0.24		
Cc1cnc(CCNC(=O)NCCC(=O)N(C)C)s1	-7	0.96		
O=C(CCCc1ccccc1)N1CCN(c2cc(N3CCCC3)ncn2)CC1	6	-0.85		
CCc1cccc(NC(=O)c2cc3nccc(-c4ccc(OC)c(OC)c4)n3n2)c1	-3	0.37		
O=C(Cc1ccon1)N1CC(S(=O)(=O)N2CCc3ccccc32)C1	-12	2.18		
Cc1cc(C)c(CNC(=O)c2cnc(OC(C)C)c(Cl)c2)c(=O)[nH]1	-13	2.03		
CC(=O)N(C)c1nc(COc2cccc(S(C)(=O)=O)c2)cs1	-4	0.47		
CCc1cccc(OC2CN(c3cc([C@H]4C[C@H](N)C4)ncn3)C2)c1	-5	1.07		

SMILES	% Inhibition [%]	Z score	% Inhibition (2 µM)	Z score (2 µM)
Cc1n[nH]c(C)c1NC(=O)CN[C@H](c1cccs1)C(C)(C)C	-3	0.66		
N#CCNC(=O)c1ccccc1Br	-5	0.85		
Cc1ccc(C(C)C)c(Oc2nc(-c3ccccc3O)nc3ccccc23)c1	26	-2.99		
Cn1nc(C2CC2)nc1CN1CCOc2c(Cl)cc(Br)cc21	-5	0.6		
CN(C)c1ccc(CN2CC[C@H](O)CC(C)(C)C2)cn1	-19	2.47		
CN(C)[C@@H]1CN(Cc2cc(F)c(F)cc2F)CC[C@@H]1CO	1	-0.09		
COCc1nc(NC[C@@H](c2sccc2C)N(C)C)c2cnn(C)c2n1	2	-0.27		
COc1ncc(Cl)c(N2C[C@H](CS(N)(=O)=O)[C@@H](C)C2)n1	-12	2.37		
O=C(CCCc1cn[nH]c1)N[C@@H]1COCC[C@@H]1Oc1cccc(F)c1	-24	2.46		
O=C(N[C@H]1CCN(c2nccs2)C1)c1cc(C2CC2)on1	-8	1.52		
Cc1ccc(CCNC(=O)c2cc(CN3CCc4ccccc4C3)on2)o1	-11	1.45		
Cc1cc(-c2c(C)sc(C)c2S(=O)(=O)N2CCN(c3ccc(Cl)cc3)CC2)on1	-7	1.22		
COc1nc2c(cc1CNC(=O)c1ncccc1O)C(=O)N(C1CCCC1)C2	-11	1.21		
CCN(C(=O)Cn1c(=O)n(Cc2ccco2)c(=O)c2c1c(C)nn2CC)c1cccc(C)c1	4	-0.48		
COCC1(NC(=O)c2nc(C)sc2C)CCCC1	-5	0.73		
Cc1cc(=O)[nH]cc1C(=O)N(Cc1cccnc1)Cc1ccco1	-10	1.03		
O=C(c1c(F)ccc2c1OCO2)N1CCO[C@@]2(CCCOC2)C1	-3	0.6		
O=C1CN(c2ccc(CNC(=O)NCc3cccs3)cc2)CCN1	-3	0.57		
Cc1cc(NC(=O)CN2CCCC[C@H]2C(N)=O)ccc1N1CCCC1	-5	0.51		
CCCCS(=O)(=O)NC[C@H](O)CN1CCC(C)CC1	8	-1.05		
O=C(Cc1c(F)cccc1Cl)Nc1cc(N2CCCC2=O)ccc1Cl	0	-0.08		
O=C(NCc1ccc(OCc2cccnc2)cc1)c1ccc2c(c1)OCO2	-1	0.14		

SMILES	% Inhibition [%]	Z score	% Inhibition (2 µM)	Z score (2 µM)
CCn1c(Cn2cnc3ccccc3c2=O)nc2c(F)cccc21	-8	1.05		
CN1CCCN(C(=O)c2ccc(Cl)cc2O)CC12CCNCC2	-2	0.27		
CC(C)c1ncc(C(=O)N2CCCCC3CCCCC32)s1 (stereo not given)	-5	0.7		
Cc1cc(=O)n2nc(COc3nc(C(C)C)no3)sc2n1	-3	0.44		
COC(=O)c1nsc2cc(C#N)ccc12	-14	2.02		
COc1ccccc1N1C(=O)C2C(c3cccs3)NC(Cc3ccccc3)(C(=O)O)C2C1=O (stereo not given)	-13	1.42		
C[C@@H](CC1CCCC1)C(=O)Nc1cnn(Cc2cnn(C)c2)c1	-11	1.36		
CC(C)N(C(=O)Cc1csc(NC(=O)c2ccco2)n1)C1CCC1	-3	0.32		
Cn1ccnc1CNC(=O)N1CCC(Oc2cccc(C(F)(F)F)c2)CC1	6	-0.54		
O=C(c1cc(-c2ccc(F)cc2)[nH]n1)N1CCC(N2CCCCC2)CC1	26	-2.98		
COc1ccc(-c2ncc3c(n2)CCN(S(=O)(=O)c2ccccc2C(F)(F)F)C3)cc1	-2	0.24		
CC(c1nnnn1C1CCCCC1)N1CCC2OCCCC2C1 (stereo not given)	-2	0.38		
c1cnc(-c2ccnc(NC3CCC4CCCC4C3)n2)cn1 (stereo not given)	5	-0.56		
O=C(Cc1cc(-c2ccccc2)on1)N1CCOC[C@@H]1CCO	-9	1.29		
NC(=O)C1CCN(C(=O)CN(Cc2ccccn2)C2CC2)CC1	-3	0.3		
COc1ccc(C2C(CNC(C)c3ccncc3)CCN2C)cc1 (stereo not given)	-11	1.28		
Cc1ccc(OCCC(=O)N[C@H]2CCS(=O)(=O)C2)cc1C	-1	0.1		
CCC#CCN1CCCn2nc(CCC(=O)N3CCC(O)CC3)cc2C1	-11	2.09		
Cc1c[nH]c(C(=O)NCCc2ccc(C)s2)n1	2	-0.31		
Cc1noc2nc(CCC(=O)Nc3cccc(Br)c3)nc(N3CCCCCC3)c12	9	-1.34		
Cc1ccc2c(=O)c(-c3nc(-c4ccc(F)cc4)no3)cn(CC(=O)Nc3ccccc3C)c2n1	-18	1.58		
COc1cc2c(cc1OC)[C@H](c1cccc(Cl)c1)N(CC1CCCCC1)CC2	0	0.06		

SMILES	% Inhibition [%]	Z score	% Inhibition (2 µM)	Z score (2 µM)
Cc1noc(C)c1CCC(=O)N[C@H]1CCN(Cc2ccccn2)C[C@@H]1O	-10	1.96		
Cc1n[nH]c(C)c1S(=O)(=O)N1C[C@H]2CC[C@@H](C1)N(C)C2	-16	1.94		
Cc1nc(CCNc2ccc(C(=O)Nc3nncs3)cn2)cs1	-7	0.98		
C[C@H](Oc1ccccc1)C(=O)N1CCC(N2C(=O)COC2=O)CC1	0	0.05		
Cc1ccc2[nH]c(C)c(CC(=O)Nc3cc(C(C)(C)C)nn3[C@H]3CCS(=O)(=O)C3)c2c1	3	-0.4		
O=C(NS(=O)(=O)C[C@H]1CCCO1)C1CCCC1	-5	0.79		
Cc1cc(=O)n2nc(-c3ccccc3Cl)nc2n1CC(=O)N1CCN(c2ccccc2)CC1	-11	1.34		
COCc1ncc(C)n1CCNC(=O)c1cn(C)nc1C	-15	1.7		
COc1ccc(S(=O)(=O)N2CCOCC2)cc1NC(=O)[C@@H]1Cc2ccccc2C(=O)O1	-3	0.44		
O=S(=O)(c1cccs1)n1ccnc1	-12	2.22		
O=C(C[n+]1ccn2cccc2c1-c1ccccc1)c1ccccc1	3	-0.43		
CCc1ccc(NC(=O)Cn2cc(-c3nc(C(C)C)no3)ccc2=O)cc1	-2	0.33		
CC[C@H](C)NS(=O)(=O)c1cc(-c2nnc(C)o2)cs1	-6	0.73		
CC(C)c1ccc(-n2cc(-c3ccccc3)nc2NC(=O)CN(CCN(C)C)C(=O)c2ccccc2)cc1	-6	0.83		
c1ccc(COc2ccc3c(c2)CCCN3)cc1	-8	1.42		
CN1CCN(C)[C@@H](CNS(=O)(=O)c2ccccc2C(C)(C)C)C1	-10	1.02		
Cc1ccccc1-c1cn2c(C(=O)N(C)[C@@H](C)c3ccccn3)csc2n1	4	-0.68		
Cc1nc(C(=O)NCCCN(C)c2ccccc2)c(C)s1	-11	1.17		
COc1ccc([C@H]2CC(=O)Nc3nc(N)sc32)cc1OCc1ccc(F)cc1			-12% and -24%	1.6 and 3.09
